This passage reports activity change, negative = inhibition results from PubChem BioAssay AID1745853 (National Center for Advancing Translational Sciences (NCATS), 2022).

What all share (test): Primary Screen for Target Class Profiling of Small Molecule Inhibitors of Methyltransferases
Assay [1] deals with Glycine N-methyltransferase (Homo sapiens) (UniProt Q14749). The settings on record: purified enzyme, MTase-Glo SAH luminescence; measured here: GNMT inhibition; at 40 µM; stronger effect = lower value. The source says:
(§1) PI: Matthew D. Hall Ph.D. and Quinlin M. Hanson Ph.D.
(§2) National Center for Advancing Translational Sciences (NCATS)
(§3) National Institute of Health (NIH), Rockville, MD
(§4) Target class profiling (TCP) is a chemical biology approach amenable to investigating understudied biological targets. TCP is achieved by developing a generalizable assay platform and applying it to screen a curated set of compound libraries against representative members of a target class. Small molecule methyltransferases (SMMTase) are a subclass of methyltransferase that act on metabolites to modulate signaling pathways, metabolize xenobiotics, or balance the available methyl pool. We screened four curated libraries totaling 27,574 unique compounds against the SMMTases nicotinamide N-methyltransferase (NNMT), phenylethanolamine N-methyltransferase (PNMT), histamine N-methyltransferase (HNMT), glycine N-methyltransferase (GNMT), catechol O-methyltransferase (COMT), and guanidinoacetate N-methyltransferase (GAMT). The data generated by this TCP can be leveraged for informed tool molecule development. For example, in the associated publication we identified a chemotype of HNMT-selective inhibitors. Additionally, we identified a putative SMMTase-selective inhibitor with potential as a tool molecule for studying broader methyltransferase biology.
(§5) High-through put screening assays were developed at the National Center for Advancing Translational Science (NCATS) for the enzymes NNMT, PNMT, HNMT, GNMT, COMT, and GAMT. Enzymatic activity was measured as a function of SAM cofactor conversion using the MTase Glo kit (Promega) for all enzymes. All assays were performed in 1536-well format with substrates and SAM concentrations at KM values. Enzyme concentration and assay timing were optimized for 10-20% SAM conversion. Initial screening of 27,574 compounds was done as single-point assays using the highest compound concentration (40 uM). […] These compounds were replated in 11-point dose response and assayed against NNMT, PNMT, HNMT, GNMT, COMT, GAMT, and a counter-assay. The IC50 and efficacy (maximal response) values were determined for each dose-response curve. These values are also accounted for in the area under the curve (AUC) values.
(§6) PROTOCOL TABLE (as described by Inglese J, Shamu CE and Guy RK. 2007)
(§7) SEQUENCE No. (e.g., 1, 2, 3, etc.); […] (e.g., Cells, Incubation, Reagent, etc.); VALUE; DESCRIPTION.
(§8) 1; Reagent; 2 uL; SMMTase Enzyme (2x) in reaction buffer, columns 1- 48.
(§9) 2; Reagent; 1 uL; SAM (4x) in reaction buffer, columns 1-48.
(§10) 3; Controls; 23 nL; DMSO in column 4; sinefungin in DMSO (0 uM - 40 uM) in 7-point 1:2 dilution series (n = 2) in column 2.
(§11) 4; Compounds; 23 nL; Columns 5-48.
(§12) 5; Reagent; 1 uL; Substrate (4x) in reaction buffer, columns 2-48.
(§13) 6; Time; 20-30 min; Incubation.
(§14) 7; Reagent; 1 uL; MTase-Glo reagent (5X), columns 1-48.
(§15) 8; Time; 30 min; Incubation.
(§16) 9; Reagent; 5 uL; MTase-Glo Detection reagent, columns 1-48.
(§17) 10; Time; 30 min; Incubation, luminescence evolution.
(§18) 11; Detection; Luminescence; ViewLux uHTS Microplate Imager (PerkinElmer).
(§19) NOTES (numbers refer to Sequence numbers above)
(§20) 1, 2, 5. White Medium Binding Greiner 1536-well plates (Cat #789175-F, Greiner Bio-One, Monroe, NC); Reaction buffer: 50 mM Tris, pH 8.0, 3 mM MgCl2, 1 mM EDTA, 50 mM NaCl, 1 mM DTT, and 0.1 mg/mL BSA. Evaporation was prevented by covering assay plates with metal lids containing holes to allow gas diffusion.
(§21) 1. Six SMMTase were profiled: HNMT, GNMT, PNMT, COMT, NNMT, GAMT
(§22) 5. The corresponding substrate was used for each enzyme: HNMT - 5.3 uM Histamine; GNMT - >500 uM Glycine; PNMT - 16.2 uM Norephinephrine; COMT - 13.7 uM Norephinephrine; NNMT - 3.8 uM Nicotinamide; GAMT - 2.5 uM Guanidinoacetate.6, 8, 10. Room temperature
(§23) 6. Final reaction conditions: 10 nM COMT, 5 uM SAM, 15 uM norepinephrine, 50 mM Tris, pH 8.0, 3 mM MgCl2, 1 mM EDTA, 50 mM NaCl, 1 mM DTT, and 0.1 mg/mL BSA; refer to tables 2 and S1 for specific timing.
8. […]

Assay [2] concerns the target Guanidinoacetate N-methyltransferase (Homo sapiens) (UniProt Q14353). The note with it: purified enzyme, MTase-Glo SAH luminescence; measured here: GAMT inhibition; at 40 µM; stronger effect = lower value.
Excerpt: as §1, §2, §3, §4, §5, §6, §7, §8, §9, §10, §11, §12, §13, §14, §15, §16, §17, §18, §19, §20, §21, §22, §23
8. […]

Assay [3] addresses Histamine N-methyltransferase (Homo sapiens) (UniProt P50135). The note with it: purified enzyme, MTase-Glo SAH luminescence; measured here: HNMT inhibition; at 40 µM; stronger effect = lower value.
Excerpt: as §1, §2, §3, §4, §5, §6, §7, §8, §9, §10, §11, §12, §13, §14, §15, §16, §17, §18, §19, §20, §21, §22, §23
8. […]

For assay [4], the target named is Nicotinamide N-methyltransferase (Homo sapiens) (UniProt P40261). The settings on record: purified enzyme, MTase-Glo SAH luminescence; measured here: NNMT inhibition; at 40 µM; stronger effect = lower value.
Excerpt: as §1, §2, §3, §4, §5, §6, §7, §8, §9, §10, §11, §12, §13, §14, §15, §16, §17, §18, §19, §20, §21, §22, §23
8. […]

For assay [5], the target named is Phenylethanolamine N-methyltransferase (Homo sapiens) (UniProt P11086). The note with it: purified enzyme, MTase-Glo SAH luminescence; measured here: PNMT inhibition; at 40 µM; stronger effect = lower value.
Excerpt: as §1, §2, §3, §4, §5, §6, §7, §8, §9, §10, §11, §12, §13, §14, §15, §16, §17, §18, §19, §20, §21, §22, §23
8. […]

Molecules are shown by their SMILES. The list shows a part of the results. Further columns of the screen follow, without active or inactive calls. Peptide text beside a SMILES is read from it.
% is set by controls: 0 for no effect and ±100 for the full control effect.

Regarding `CSCC[C@H](NC(=O)[C@H](CO)NC(=O)[C@H](CCC(=O)O)NC(C)=O)C(=O)N[C@H](C=O)CC(=O)O` (Ac-ESMD-aldehyde), the activity change, negative = inhibition in assay [1] was -0.318%; in assay [2], 1.01%; in assay [3], 0.341%; in assay [4], -15%; in assay [5] it was -5.72%.
For `COc1cncc(C#Cc2ccccn2)c1` the same measures were 0.543%, 6.23%, 8.47%, -11.5% and 2.08%.
For `Cc1c(OCc2cccc(-c3ccc(C(=O)O)cc3)c2)cc2c(c1C)C(=O)C(C1CCCC1)C2` (stereo not drawn), the activity change, negative = inhibition is -48.9% in assay [1]; -15.6% in assay [2]; -6.54% in assay [3]; -62.5% in assay [4]; -7.48% in assay [5].
Consider `CCCCCCCCCCCCCC#CC(=O)[C@@H]1COC(C)(C)N1C(=O)OC(C)(C)C`, for which the figures for the activity change, negative = inhibition in assay [2], in assay [4] and in assay [5] were -1.2%, -4.77% and 4.68%, respectively.
Consider `COC(=O)c1cc2n(n1)CC(C)(C(=O)NC1CCCCC1)N(c1ccc(F)cc1C)C2=O` (stereo not drawn), for which the activity change, negative = inhibition came to 5.54% in assay [1]; 0.944% in assay [2]; 5.11% in assay [3]; 6.08% in assay [4]; 4.78% in assay [5].
Taken in the same sequence, the figures for `CSc1ccc(CCNC(=O)c2cc3n(n2)CC(C)(C(=O)NCc2ccc(C)cc2)N(C)C3=O)cc1` (stereo not drawn) were 4.87%, 0%, 6.17%, 3.19% and 2.13%.
In the case of `CNC(=O)[C@@H]1C[C@@H](n2cc(CNC(=O)Nc3ccc(Cl)cc3C)nn2)CN1`, the activity change, negative = inhibition in assay [1] was -1.86%; in assay [2] it was -1.31%; in assay [3] it was 0.952%; in assay [4], 1%; in assay [5], 16%.
Taken in the same sequence, the figures for `CCCn1c(=O)c2cc(F)ccc2n2c(SCC(=O)Nc3ccc(C)cc3)nnc12` were 7.74%, 1.35%, 10.9%, 8.44% and 6.35%.
Taken in the same sequence, the figures for `Cc1ccc(Cc2c(C)nc3nc(SCC(=O)NCCN4CCNCC4)nn3c2C)cc1` were -2.34%, -4.52%, -12.6%, -16.8% and -1.85%.
Regarding `CCCNC(=O)N1Cc2c(sc3c2CCCC3)-n2cccc2C1c1ccc(OCC)cc1` (stereo not drawn), the activity change, negative = inhibition in assay [1] was 0.414%; in assay [2], 0%; in assay [3], 5.33%; in assay [4], -7.2%; in assay [5] it was 4.98%.
Consider `CN1CC(=O)N/C1=N/C(=O)Nc1cccc(Cl)c1`, for which the activity change, negative = inhibition is -1.48% in assay [1]; 2.39% in assay [2]; 0.264% in assay [3]; -10.1% in assay [4]; -0.812% in assay [5].
For `CNC(=O)c1cc(C2CC2)nc2c1c(C1CCCN([S+](=O)([O-])c3c(C)noc3C)C1)nn2C` (stereo not drawn) the same measures were -0.494%, 0.859%, 3.31%, -2.76% and 14.8%.
For `C=C1C[C@@]23CCC4[C@@](C)(CCC[C@@]4(C)C(=O)OC)C2CC[C@@H]1C3` (stereo partly drawn) the same measures were 0%, 12.9%, 11.5%, -2.03% and 3.08%.
For `O=C(c1cc2ccccc2[nH]1)N1CCCC2(C1)NC(=O)N(Cc1ccccc1)C2=O` (stereo not drawn) the same measures were -4.73%, -8.17%, -3.75%, -9.18% and -5.19%.
Take `O=C(C[C@@H]1C[C@H]2O[C@H](CNC3CCC(F)(F)CC3)[C@@H](O)[C@H]2O1)N1CCC(F)(F)C1`: the activity change, negative = inhibition in assay [1] is -5.58%; in assay [2], -8.45%; in assay [3] it was -2.46%; in assay [4], -9.51%; in assay [5] it was -6.71%.
